In the supplement of paper PMC10126150:
Values marked as one replicate rest on one cluster of the flow cell; about a third of the high ones do not repeat.

system: ATP; assay: switch fluorescence ratio, 500 uM ATP over buffer (Cy3 cluster intensity, sum of 5 cycles each) (fold (ratio)); higher = stronger signal-on switching upon ATP binding; sequences stand for … in TCGTCGGCAGCGTCAGATGTGTATAAGAGACAGTTTTTTTTTTTTTTTTTTTTTTTTT…TC; settings: aptamer strand: ATP DNA aptamer (quencher-CACCTGGGGGAGTATTGCGGAGGAAGG + anchor), 100 nM annealed; ATP concentration: 500 uM; one replicate
Method in brief: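 Cy3-labelled switching-strand clusters on a modified Illumina MiSeq flow-cell were annealed to 100 nM quencher-labelled ATP aptamer, imaged in selection buffer, then imaged after 15 min with 500 uM ATP at 22 °C. Five buffer/ATP cycles ran, with NaOH stripping and re-annealing between them. The fluorescence ratio is summed target-cycle over summed buffer-cycle Cy3 intensity per cluster, averaged per switch-domain sequence. Clusters outside 100-1000 RFU were excluded.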
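Note: ATP exposure 15 min at 22 °C before imaging.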

Sequence	switch fluorescence ratio
ACAAACCGCA	1.34
TGTTACGCT	1
GCTTGGCTCA	0.989
ATTCCTGTAG	1.06
TCTGCTTTAC	2.27
GCTTAAAACT	1.02
AAACCAGGCA	1.03
CAAAAGGATG	0.965
TCTGAGATTT	0.992
CTACCCGCTG	1.68
ACTTGTCCAA	1
CGTGTTATAT	0.996
GCCGCTCATT	1.02
GGGTTTGGAG	0.992
CGGAGTCGTG	1.05
GTGTTGCGGG	0.986
CAGAGATAGG	0.964
TTTTTTGTC	0.967
TTCTAATACT	1.12
TTACACCCGC	1.12
AGTGAAGTTC	1.01
AATGTAATTG	0.98
GGTTCGAGGG	0.998
GTCCCAAACG	1.05
GGGATAGCCT	1

Sequence	switch fluorescence ratio
TTGGGAGTA	0.996
GAAATTATGT	1
TAGGCATCCT	1.07
GCTAGCGGCC	0.99
GTTAATGTGG	0.968
GTTCTAATGG	1
TCGTCTAGTA	0.962
CTCATGGCTA	1.07
CATTTCAAAG	0.99
TAGGGTCAAA	0.922
AGCCTCAGGA	1.01
GCGGCCTGGC	0.951
AGTGTGTTTC	1
GTCGACGGTA	0.962
TGGTGGGAGC	0.962
ATTGCCCCGA	1.01
ACCAGTTAGC	1
TCAGCTTTCG	1.02
AGATACTCG	1.1
TATGTGTTCC	1.01
TAGCTATAGA	1.04
CAGAACGGTG	1.07
CGATGGAAAC	1.72
CATGCGTGTG	1.02
GTATGTCCTG	0.891

Sequence	switch fluorescence ratio
CCAAGCAGCG	1.22
GCCCATGTTA	1.02
TAGGAACCGG	0.992
GGGCAGGTCC	1.02
CATCAGACTC	1.01
GTTAACACGG	1
TGACTTGTGA	0.976
ATCCATTTGG	1.01
GTATGCGCAC	1.06
TGATGCGGGA	1.01
CATCGAGGGA	0.978
AAGCTGGAT	1.12
GATATGTTTG	0.977
ATGGAAGATG	0.958
TGATCAAAAG	1
GGGCGGCGAG	0.983
GTTCTATGGC	1.06
GCATCGTTAT	0.963
GGTGGTGTTG	0.994
AAAAGCGGCC	0.993
ATGGCTCGGC	0.953
GGTGCTCTGG	0.995
GTGAGTAAGA	1.02
GGCTTCTGTA	1.01
ATGGAACCCG	1.02

Sequence	switch fluorescence ratio
GATGGTTAGG	1.04
GATCGGAATC	2.47
TAGGGATAAT	1.06
CGAACGGATC	1.35
CGATAATTGT	0.99
AACCACTTGT	1.03
AATTTACCTG	1.04
CCAGCACAGT	1.05
TTTGTTGACG	0.965
CACCGGGCGG	0.973
TTGATGGCCA	1.06
ATAGAAATCA	1.03
CGATGGATTA	1.03
ACTTACCGGG	1.19
GTATTCTACG	0.872
CGAAAGAAAG	1.01
AAGATGTCGA	1.03
TGAGAGGTCA	1
TCGATGCTTG	1.01
TCTGACTTTA	1.14
GCCCAGGGCA	1.19
GAACAAGATT	1.08
TGCCATATAG	1.01
TCACTTGTAC	1.22
TCTAACTCGA	1.03
